Results: ChEMBL document CHEMBL1201862, “PubChem BioAssay data set” (2004)
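48-hour exposure; five concentrations; linearly interpolated endpoints. Here, GI50 denotes the concentration required for 50% inhibition of growth.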 Active and inactive are the calls of the source. No stated cut-off is given here; in the data, active = GI50 up to about 1.1 µM and inactive = higher. Numbered stars: 1 amine (or outer) side, 2 acyl side, 3 side chain; on linkers, the order of the positions; unused ones are H or OH. Bridge positions count the residues as written; N and C are the ends. Square brackets hold non-standard residues; d marks the D form. Peptide text beside a SMILES is read from it. I, II: the chains in the order shown. Actinocin(1to9) = Cc1c2oc3c(C)ccc(C(=O)[*:2])c3nc-2c(C(=O)[*:1])c(N)c1=O; NMeV = CN[CH](C(=O)O)C(C)C; Sar = CNCC(=O)O

Each molecule was assayed on NCI-H322M (assay: NCI-60 cell line screen, 48 h).

**Q.** `NCCCCNC1(c2cc3ccccc3s2)CCCCC1` was tested. Which GI50 did it give?
**A.** Its GI50 is inactive: 4.73 µM.

**Q.** With `COc1ccc(CC2NC(=O)C(NC(=O)c3c4nc5c(C(=O)NC6C(=O)NC(Cc7ccc(OC)cc7)C(=O)N7CCCC7C(=O)N(C)CC(=O)N(C)C(C(C)C)C(=O)OC6C)ccc(C)c5oc-4c(C)c(=O)c3N)C(C)OC(=O)C(C(C)C)N(C)C(=O)CN(C)C(=O)C3CCCN3C2=O)cc1` (stereo not given) (I: TY(Me)P[Sar][NMeV] / II: TY(Me)P[Sar][NMeV]; ester I:1-I:C, II:1-II:C; linker I:N-II:N via Actinocin(1to9); configuration not given here) as the molecule, how does the GI50 read?
**A.** Its GI50 is active: < 0.001 µM.

**Q.** With `COc1cccc(/N=C/c2cc3cc(Br)ccc3nc2Cl)c1` as the molecule, how does the GI50 read?
**A.** The GI50 was inactive: 23.6 µM.

**Q.** With `CC1OC23CCCCC2C(C#N)(C#N)C1(C#N)C(=N)O3` (stereo not given) as the molecule, how does the GI50 read?
**A.** The GI50 was inactive: 69.7 µM.

**Q.** How did the GI50 turn out when `N#Cc1nc(-c2ccsc2)oc1N` was run?
**A.** Its GI50 is inactive: > 100 µM.

**Q.** With `CN(C)CC1(Cc2ccccc2)CCC(Cc2ccccc2)C1=O` (stereo not given) as the molecule, how does the GI50 read?
**A.** Its GI50 is inactive: 17.5 µM.

**Q.** Which GI50 does the source give for `CCCCCCCCCCCCCCCCCCNC(=S)N/C=C1\C(=O)Nc2ccccc2C1=O` here?
**A.** Its GI50 is inactive: 18.7 µM.

**Q.** With `Nc1nc(N)c(CCCCc2ccc([N+](=O)[O-])cc2)c(N)n1` as the molecule, how does the GI50 read?
**A.** The GI50 was inactive: > 100 µM.

**Q.** How did the GI50 turn out when `COC1(C)CCC(OS(C)(=O)=O)CO1` (stereo not given) was run?
**A.** Its GI50 is inactive: > 100 µM.

**Q.** Which GI50 does the source give for `OC1=CN=C(c2ccccc2)Oc2ccccc21` here?
**A.** Its GI50 is inactive: > 100 µM.

**Q.** For `O/N=N/c1ccc(Sc2ccc(/N=N/O)cn2)nc1`, which GI50 is on record?
**A.** The GI50 was inactive: > 100 µM.

**Q.** `Cc1nc(C)c(C(=O)NNC(=O)Cc2ccccc2)cc1C(=O)NNC(=O)Cc1ccccc1` was tested. Which GI50 did it give?
**A.** The GI50 was inactive: > 100 µM.

**Q.** `Clc1ccc(Cc2nc3cc(CCN4CCN(c5ccccc5)CC4)ccc3[nH]2)cc1` was tested. Which GI50 did it give?
**A.** The GI50 was inactive: 29.6 µM.

**Q.** How did the GI50 turn out when `c1cncc(CNc2ncn[nH]2)c1` was run?
**A.** The GI50 was inactive: > 100 µM.

**Q.** For `CC(=O)Oc1c2c(c(O)c3ccccc13)C(n1cnc3c(ncn3C3OC(CO)C4OC(C)(C)OC43)c1=N)CCC2` (stereo not given), which GI50 is on record?
**A.** Its GI50 is inactive: 19.1 µM.

**Q.** For `COc1ccc(C2CC(c3ccc4ccccc4c3O)=NN2)cc1OC` (stereo not given), which GI50 is on record?
**A.** Its GI50 is inactive: 56.1 µM.

**Q.** With `COc1cc2c[n+](C)c3c4ccccc4ccc3c2cc1OC` as the molecule, how does the GI50 read?
**A.** Its GI50 is inactive: 9.79 µM.

**Q.** How did the GI50 turn out when `O=C1C=C(c2c(O)ccc3ccccc23)c2ccccc2C1=O` was run?
**A.** The GI50 was inactive: 5.9 µM.

**Q.** With `CC(C)=NN/C(=N\c1ccc(Cl)cc1)NS(=O)(=O)c1cc(Cl)c(Oc2ccc([N+](=O)[O-])cc2Cl)c(Cl)c1` as the molecule, how does the GI50 read?
**A.** The GI50 was inactive: > 100 µM.

**Q.** `O=C(NC1C(=O)NC(CCc2ccccc2)NC1=O)OCc1ccccc1` (stereo not given) was tested. Which GI50 did it give?
**A.** Its GI50 is inactive: > 100 µM.

**Q.** With `Cc1ccc2c(/C=C/c3ccc(N(C)C)cc3)ccc(C(C)C)cc1-2` as the molecule, how does the GI50 read?
**A.** Its GI50 is inactive: > 100 µM.

**Q.** Which GI50 does the source give for `O=C1C=C(c2ccccc2)O/C1=C/C(=O)c1ccc(Cl)cc1` here?
**A.** The GI50 was inactive: 46 µM.

**Q.** `CC(C)=CCNc1ncnc2c1ncn2CCC#N` was tested. Which GI50 did it give?
**A.** The GI50 was inactive: > 100 µM.

**Q.** With `COC(=O)CCC(C)[C@H]1CCC2C3C(C[C@H](OC(C)=O)[C@@]21C)[C@@]1(C)CCC2(C[C@H]1C[C@H]3OC(C)=O)OOC1(CCCC1)OO2` (stereo not given in full) as the molecule, how does the GI50 read?
**A.** The GI50 was inactive: > 100 µM.

**Q.** For `CC(=O)c1ccc2c(c1)CC1(C2)Cc2ccccc2C1=O` (stereo not given), which GI50 is on record?
**A.** Its GI50 is inactive: 48.9 µM.

**Q.** `COc1ccc(C(=O)C2CC3(CCC2(O)c2ccc(OC)cc2)CC(=O)Nc2ccccc2C3=O)cc1` (stereo not given) was tested. Which GI50 did it give?
**A.** Its GI50 is inactive: > 100 µM.

**Q.** Which GI50 does the source give for `Cc1ccc(Nc2nc(O)c3[nH]cnc3n2)cc1CO` here?
**A.** The GI50 was inactive: 22 µM.

**Q.** `CCCCCCCCCCCC(=O)OCCOCCOCCOCCOCCOCc1ccccc1` was tested. Which GI50 did it give?
**A.** The GI50 was inactive: > 100 µM.

**Q.** With `C[n+]1c(/C=C/c2ccc(/C=N/NC(=O)c3ccc(C(=O)N/N=C/c4ccc(/C=C/c5cn6ccccc6[n+]5C)cc4)cc3)cc2)cn2ccccc21` as the molecule, how does the GI50 read?
**A.** The GI50 was inactive: > 100 µM.

**Q.** How did the GI50 turn out when `N#C[C@H]1C(=O)C(c2nc3ccccc3[nH]2)S[C@H]1c1ccccc1` (stereo not given in full) was run?
**A.** The GI50 was inactive: 25.2 µM.

**Q.** How did the GI50 turn out when `CCOC(=O)c1cnn2c1ncc1c(=O)n(NC(N)=O)ccc12` was run?
**A.** The GI50 was inactive: > 100 µM.

**Q.** For `C=C1CC2CC(=O)C(O)C(C1)C2` (stereo not given), which GI50 is on record?
**A.** Its GI50 is inactive: > 100 µM.

**Q.** How did the GI50 turn out when `C/N=C1\S/C(=N\c2ccc(N(C)C)cc2)N1C` was run?
**A.** Its GI50 is inactive: 52.2 µM.

**Q.** Which GI50 does the source give for `C=C1C(=O)OC2C[C@H](C)C3CC(=O)C(C)=C3CC12` (stereo not given in full) here?
**A.** The GI50 was inactive: 28.2 µM.

**Q.** `OC(O)(C(F)(F)F)C(F)(F)F` was tested. Which GI50 did it give?
**A.** The GI50 was inactive: > 100 µM.
